# Test results published in the supplement of paper PMC8728848.
# The list shows a part of the results.
# Key:
# Assay in all cases: glycan array binding signal (z-score within array); higher = stronger binding
# Details in all cases: glycan notation: IUPAC condensed, linker removed
# [1] = target: GlcNAc(b1-3)Gal(b1-4)GlcNAc
# How it was run: (§1)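 Negative Z-scores can be read as non-binding. The Z-score is calculated within each array and then averaged across arrays of one protein sequence at different concentrations or buffers and across linkers. Arrays, 3228 in all, were curated from the Consortium for Functional Glycomics database and kept only where the protein sequence was available.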
# [2] = target: GlcNAc(b1-3)Gal(b1-4)GlcNAc(b1-3)Gal(b1-4)GlcNAc
# How it was run: as §1
# [3] = target: GlcNAc(b1-3)GalNAc
# How it was run: as §1
# [4] = target: GlcNAc(b1-3)[GlcNAc(b1-6)]Gal(b1-4)GlcNAc
# How it was run: as §1
# [5] = target: GlcNAc(b1-3)[GlcNAc(b1-6)]GalNAc
# How it was run: as §1
# [6] = target: GlcNAc(b1-3)[GlcNAc(b1-6)]GlcNAc(b1-4)GlcNAc
# How it was run: as §1
# [7] = target: GlcNAc(b1-4)Gal(b1-4)GlcNAc
# How it was run: as §1
# [8] = target: GlcNAc(b1-4)GlcNAc(b1-4)GlcNAc
# How it was run: as §1
# [9] = target: GlcNAc(b1-4)GlcNAc(b1-4)GlcNAc(b1-4)GlcNAc(b1-4)GlcNAc
# How it was run: as §1
# [10] = target: GlcNAc(b1-4)GlcNAc(b1-4)GlcNAc(b1-4)GlcNAc(b1-4)GlcNAc(b1-4)GlcNAc
# How it was run: as §1
# [11] = target: GlcNAc(b1-4)[GlcNAc(b1-6)]GalNAc
# How it was run: as §1
# [12] = target: GlcNAc(b1-6)Gal(b1-4)GlcNAc
# How it was run: as §1
# [13] = target: GlcNAc(b1-6)GalNAc
# How it was run: as §1
# [14] = target: Kdn(a2-3)Gal(b1-3)GlcNAc
# How it was run: as §1
# [15] = target: Kdn(a2-3)Gal(b1-4)GlcNAc
# How it was run: as §1
# [16] = target: Man(a1-2)Man(a1-2)Man(a1-3)Man
# How it was run: as §1
# [17] = target: Man(a1-2)Man(a1-2)Man(a1-6)[Man(a1-3)]Man
# How it was run: as §1
# [18] = target: Man(a1-2)Man(a1-3)Man
# How it was run: as §1
# [19] = target: Man(a1-2)Man(a1-3)[Man(a1-2)Man(a1-6)]Man
# How it was run: as §1
# [20] = target: Man(a1-2)Man(a1-3)[Man(a1-2)Man(a1-6)]Man(a1-6)[Man(a1-2)Man(a1-2)Man(a1-3)]Man(b1-4)GlcNAc(b1-4)GlcNAc
# How it was run: as §1
# [21] = target: Man(a1-2)Man(a1-3)[Man(a1-6)]Man(a1-6)[Man(a1-2)Man(a1-3)]Man(b1-4)GlcNAc(b1-4)GlcNAc
# How it was run: as §1
# [22] = target: Man(a1-2)Man(a1-6)[Man(a1-3)]Man(a1-6)[Man(a1-2)Man(a1-2)Man(a1-3)]Man(b1-4)GlcNAc(b1-4)GlcNAc
# How it was run: as §1
# [23] = target: Man(a1-3)[Man(a1-6)]Man
# How it was run: as §1
# [24] = target: Man(a1-3)[Man(a1-6)]Man(a1-6)[Man(a1-2)Man(a1-3)]Man(b1-4)GlcNAc(b1-4)GlcNAc
# How it was run: as §1
# [25] = target: Man(a1-3)[Man(a1-6)]Man(a1-6)[Man(a1-3)]Man(b1-4)GlcNAc(b1-4)GlcNAc
# How it was run: as §1
# [26] = target: Man(a1-3)[Man(a1-6)]Man(b1-4)GlcNAc(b1-4)GlcNAc
# How it was run: as §1
# [27] = target: Man(b1-4)GlcNAc
# How it was run: as §1
# [28] = target: Neu5Ac(a2-3)Gal
# How it was run: as §1
# [29] = target: Neu5Ac(a2-3)Gal(b1-3)GalNAc
# How it was run: as §1
# [30] = target: Neu5Ac(a2-3)Gal(b1-3)GalNAc(b1-3)Gal(a1-4)Gal(b1-4)Glc
# How it was run: as §1
# [31] = target: Neu5Ac(a2-3)Gal(b1-3)GalNAc(b1-3)Gal(b1-4)GlcNAc
# How it was run: as §1
# [32] = target: Neu5Ac(a2-3)Gal(b1-3)GalNAc(b1-4)[Neu5Ac(a2-3)]Gal(b1-4)Glc
# How it was run: as §1
# [33] = target: Neu5Ac(a2-3)Gal(b1-3)GalNAc6S
# How it was run: as §1
# [34] = target: Neu5Ac(a2-3)Gal(b1-3)GlcNAc
# How it was run: as §1
# [35] = target: Neu5Ac(a2-3)Gal(b1-3)GlcNAc6S
# How it was run: as §1
# [36] = target: Neu5Ac(a2-3)Gal(b1-3)[Fuc(a1-4)]GlcNAc
# How it was run: as §1
# [37] = target: Neu5Ac(a2-3)Gal(b1-3)[Fuc(a1-4)]GlcNAc(b1-3)Gal(b1-4)[Fuc(a1-3)]GlcNAc
# How it was run: as §1
# [38] = target: Neu5Ac(a2-3)Gal(b1-3)[Neu5Ac(a2-3)Gal(b1-4)]GlcNAc
# How it was run: as §1
binder,measurement,setting,value
SIGNR8 (Mus musculus) (protein) MAGEPEFHQSKNHEEEVTSGEQGFAEHDPEGLICSSKSLQGHLTQVPWLLLLLISLGLFLLMLATLVQVSRIRAYSQGQTQDQQGSSSLDKVAVPREQTHSGLEQIQQIQQQLTQFNASLAGLCRPCPWDWELFQGSCYLFSRTLGSWETSASSCEDLGAHLVIVNSVSEQRFMKYWNVRKNQRSWIGLSDHIHEGSWQWVDGSALKFSFWKEGEPNNDGDEDCVELFMDDWNDNKCTEQNFWVCEQPSAPCPHH,glycan array binding signal (z-score),[1],-0.398
same,glycan array binding signal (z-score),[2],-0.4
same,glycan array binding signal (z-score),[3],-0.39
same,glycan array binding signal (z-score),[4],-0.39
same,glycan array binding signal (z-score),[5],-0.393
same,glycan array binding signal (z-score),[6],-0.373
same,glycan array binding signal (z-score),[7],-0.387
same,glycan array binding signal (z-score),[8],-0.402
same,glycan array binding signal (z-score),[9],-0.407
same,glycan array binding signal (z-score),[10],-0.406
same,glycan array binding signal (z-score),[11],-0.395
same,glycan array binding signal (z-score),[12],-0.395
same,glycan array binding signal (z-score),[13],-0.374
same,glycan array binding signal (z-score),[14],-0.384
same,glycan array binding signal (z-score),[15],-0.39
same,glycan array binding signal (z-score),[16],-0.4
same,glycan array binding signal (z-score),[17],-0.409
same,glycan array binding signal (z-score),[18],-0.374
same,glycan array binding signal (z-score),[19],-0.393
same,glycan array binding signal (z-score),[20],-0.335
same,glycan array binding signal (z-score),[21],-0.361
same,glycan array binding signal (z-score),[22],-0.394
same,glycan array binding signal (z-score),[23],-0.373
same,glycan array binding signal (z-score),[24],-0.395
same,glycan array binding signal (z-score),[25],-0.393
same,glycan array binding signal (z-score),[26],-0.39
same,glycan array binding signal (z-score),[27],-0.395
same,glycan array binding signal (z-score),[28],-0.389
same,glycan array binding signal (z-score),[29],-0.403
same,glycan array binding signal (z-score),[30],-0.377
same,glycan array binding signal (z-score),[31],-0.397
same,glycan array binding signal (z-score),[32],-0.398
same,glycan array binding signal (z-score),[33],-0.383
same,glycan array binding signal (z-score),[34],-0.384
same,glycan array binding signal (z-score),[35],-0.39
same,glycan array binding signal (z-score),[36],-0.394
same,glycan array binding signal (z-score),[37],-0.393
same,glycan array binding signal (z-score),[38],-0.398
